# From PubChem BioAssay AID445 (National Center for Advancing Translational Sciences (NCATS), 2006)
# Values joined by “and” are separate entries in the source; they are usually repeats but may differ in a detail not shown here. Equal entries are not always repeated. About 40 (0.04%) of roughly 110,000 compounds were called active. Inconclusive means that the source gave no clear call. Such entries were picked first, then a sample of the others. Calls follow the shape of the dose curve; as a rule, active = well fitted curve in the direction sought with a large enough effect in the signal ratio (not every such curve was filed as active); inconclusive = small, poorly fitted or top-dose-only effect, or a change in a side signal; inactive = flat fitted curve, though single readings scatter; the % refers to the signal ratio. Where the call is inconclusive, the potency comes from a doubtful curve fit.
# Experiment: IkB Signaling;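 as to IkBa stabilization activation: 0% = basal untreated cells and 100% = reference inhibitor full response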
# Settings: ABC-DLBCL IkBa-CBG/CBR dual luciferase ratio (green luciferase fused to IkBa over red control in OCI-Ly3 lymphoma cells), 4 h, scaled: untreated 0%
# Summary of the method: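 Luminescence ratio of IκBα-fused green versus native red beetle luciferase in OCI-Ly3 cells, 4 h post-doxycycline with compound; red signal alone, scaled from basal (0%) to zero light (-100%), flagged nonspecific or cytotoxic effects.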
# [1] = IkBa stabilization activation: at 57.1 µM (top of the series), proteasome inhibitor 100% unless noted
# Potency is read from the fitted curve at half-maximal effect.
smiles,measurement,setting,value
CCN(CC)c1nc(Nc2ccc(Cl)cc2)nc(OCC#N)n1,IkBa stabilization activation,[1],inactive
O=C(c1ccc2c(c1)N(Cc1ccccc1)C(=O)c1ccccc1S2(=O)=O)N1CCOCC1,IkBa stabilization activation,[1],inactive
COc1ccccc1NC(=O)CSc1nnc(COc2ccc(Cl)cc2)n1Cc1ccco1,IkBa stabilization activation,[1],inconclusive: 3.34% [signal inhibitor]
CCc1ccc(-n2c(N3CCN(c4ccc(F)cc4)CC3)nc3ccccc3c2=O)cc1,IkBa stabilization activation,[1],inconclusive: 0.461% [signal inhibitor]
CSc1ccc(-c2c(C#N)c(N)nc3c2CCCC3)cc1,IkBa stabilization activation,[1],inconclusive: 5.52% [signal inhibitor]
CCCCOc1ccc(-c2c(C#N)c(N)nc(SCC(N)=O)c2C#N)cc1,IkBa stabilization activation,[1],inconclusive: 4.12% [signal inhibitor]
CCOC(=O)c1c(NC(=O)CN2CCCCC2)sc2c1CCCC2O (stereo not given),Potency,[1],"inconclusive: 39.8 µM [signal inhibitor, single point]"
COC(=O)c1c(C)oc2ccc(OC(=O)N3CCOCC3)cc12,IkBa stabilization activation,[1],inactive
O=C(CN1CCN(c2ccccn2)CC1)Nc1ccc(Cl)c(C(F)(F)F)c1,IkBa stabilization activation,[1],inactive
Cc1noc(C)c1S(=O)(=O)N(CC(=O)NCc1ccccc1)c1ccc(C(C)C)cc1,IkBa stabilization activation,[1],inconclusive: -0.0306% [signal inhibitor]
COc1ccc(-c2nc(SCC(=O)NC3CCCC3)c(-c3ccc(F)cc3)[nH]2)cc1OC,IkBa stabilization activation,[1],inconclusive: 4.43% [signal inhibitor]
CCOc1ccc(C2c3c(oc4cc(C)c(C)cc4c3=O)C(=O)N2CCCN(C)C)cc1OC (stereo not given),IkBa stabilization activation,[1],inactive
COc1ccc(NC(=O)Cn2c(=O)c3cccn3c3ccccc32)cc1,IkBa stabilization activation,[1],inconclusive: 1.34% [signal inhibitor]
Cc1cc(C)n(-c2nc(NC(C)C)nc(NC(C)C)n2)n1,IkBa stabilization activation,[1],inactive
O=C(NC1CC(=O)N(c2ccc(F)cc2)C1)c1ccc(S(=O)(=O)N2CCOCC2)cc1 (stereo not given),IkBa stabilization activation,[1],inactive
COc1nc(-c2ccccc2)ccc1-c1noc(-c2ccccc2)n1,IkBa stabilization activation,[1],inactive
CCCCN(C)S(=O)(=O)c1ccc(C(=O)Nc2sc3c(c2C(=O)OCC)CCN(C(C)C)C3)cc1,IkBa stabilization activation,[1],inconclusive: 2.07% [signal inhibitor]
CCOC(=O)C1CCN(C(=O)C2CCN(S(=O)(=O)c3c(C)noc3/C=C/c3ccc(C)cc3)CC2)CC1,IkBa stabilization activation,[1],inconclusive: -0.702% [signal inhibitor]
CC(=O)Nc1nc(COc2ccccc2)cs1,Potency,[1],"inconclusive: 20 µM [signal inhibitor, partial curve]"
CCCC1=Nc2cc(C(=O)NCc3ccccc3)ccc2Sc2ccccc21,Potency,[1],inconclusive: 5.01 µM [signal activator]
CC/C(=C(\c1ccccc1)c1ccc(OCCN(C)C)cc1)c1ccccc1,IkBa stabilization activation,[1],inconclusive: -1.07% [signal inhibitor] and inconclusive: -5.19% [signal inhibitor]
same,IkBa stabilization activation,"at 25.6 µM (top of the series), proteasome inhibitor 100%",inactive: -0.117%
same,IkBa stabilization activation,"at 57.1 µM (top of the series), proteasome inhibitor 100%",inactive: -4.96%
COc1ccc(OC)c(NC(=O)CSc2nnnn2-c2ccc3c(c2)OCO3)c1,Potency,[1],"inconclusive: 1.58 µM [signal inhibitor, partial curve]"
CCN1C=C(C(=O)OC)C(c2cccc(C)c2)C(C(=O)OC)=C1,IkBa stabilization activation,[1],inactive
CCc1oc2ccccc2c1C(=O)c1cc(Br)c(O)c(Br)c1,IkBa stabilization activation,[1],"inconclusive: 7.39% [signal inhibitor] [at 25.6 µM, scaled: untreated 0%, proteasome inhibitor 100%]"
Cc1cccc(C(=O)N2CCc3cc(CNC(=O)c4ccco4)ccc32)c1,IkBa stabilization activation,[1],inconclusive: -1.56% [signal inhibitor]
COc1ccccc1CNc1nccn(-c2ccc(F)cc2)c1=O,IkBa stabilization activation,[1],inconclusive: 8.72% [signal inhibitor]
COC(=O)CN1C(=O)C(O)(c2c(C)[nH]c3ccccc23)c2ccccc21 (stereo not given),IkBa stabilization activation,[1],inactive
Cc1csc2nc(COc3ccc(NC(=O)c4ccccc4F)cc3)cc(=O)n12,IkBa stabilization activation,[1],inconclusive: 3.41% [signal inhibitor]
O=C(CSC1=Nc2ccccc2C2=NC(Cc3ccccc3)C(=O)N12)Nc1cccc(Cl)c1 (stereo not given),IkBa stabilization activation,[1],inconclusive: 2.18% [signal inhibitor]
CCOC(=O)c1c(-c2ccccc2)oc2ccc(NS(=O)(=O)c3ccc(C)cc3)cc12,IkBa stabilization activation,[1],inconclusive: 15.6% [signal inhibitor]
Cc1ccnc(NC(c2cccc(O)c2)c2ccc3ccc(C)nc3c2O)c1 (stereo not given),Potency,[1],"inconclusive: 31.6 µM [rising, partial curve]"
COc1cc(C(c2sc3nc(C)nn3c2O)N2CC(C)OC(C)C2)cc(OC)c1OC (stereo not given),IkBa stabilization activation,[1],inconclusive: 16.1% [signal inhibitor]
COc1ccccc1OCCCCCNCCO,IkBa stabilization activation,[1],inactive
COCCNc1ccnc(-c2c(C)noc2C)n1,IkBa stabilization activation,[1],"inactive: 1.01% [at 11.4 µM, scaled: untreated 0%, proteasome inhibitor 100%]"
O=C(Nc1cc(F)ccc1F)C1CCN(C(=O)c2cnn(-c3ccccc3)c2-n2cccc2)CC1,IkBa stabilization activation,[1],inconclusive: 2.81% [signal inhibitor]
COc1ccc(Cl)c2sc(NC(=O)c3ccc(S(=O)(=O)N4CCCC4)cc3)nc12,IkBa stabilization activation,[1],inconclusive: 1.08% [signal inhibitor]
O=C(NCCN1C(=O)C2C3C=CC(C3)C2C1=O)Nc1cccnc1 (stereo not given),IkBa stabilization activation,[1],inactive
Cc1ccc(C)c(CN2CCCN(Cc3ccccc3C)S2(=O)=O)c1,IkBa stabilization activation,[1],inconclusive: -0.561% [signal inhibitor]
Cc1cc(C)cc(NC(=O)CN2C(=O)c3ccccc3Sc3ccc(C(=O)N4CCCC4)cc32)c1,IkBa stabilization activation,[1],inconclusive: 1.99% [signal inhibitor]
O=C(CN1C(=O)CCc2cc(Br)ccc21)Nc1ccc(OC(F)(F)F)cc1,IkBa stabilization activation,[1],inconclusive: 0.851% [signal inhibitor]
CCOC(=O)c1ccc(Nc2c(-c3ccc(N(C)C)cc3)nc3nc[nH]n23)cc1,Potency,[1],"inconclusive: 25.1 µM [rising, partial curve]"
COc1ccccc1NC(=O)CSc1nnc2c(n1)[nH]c1ccccc12,Potency,[1],"inconclusive: 31.6 µM [signal inhibitor, single point]"
COc1ccc(CCn2c(-c3ccco3)nc3ccccc3c2=O)cc1OC,IkBa stabilization activation,[1],inconclusive: -5.59% [signal inhibitor]
